Measured values from the supplement of paper PMC4967469.
By IC50 is meant the dose at which the fit gives 50% viability; fits outside the tested doses are given as limits. AUC is the area under the same curve over the 256-fold range up to the top dose, as a fraction; the more sensitive the line, the further below 1. For some of these results: The top dose, if marked as inferred, is not printed in the source and was worked back from the curve model. For some of these results: Drugs with an entry number were screened twice under separate entries, and the two screens often disagree.

Legend:
Assay in all cases: Viability of human cancer cell lines after 72 h of drug (GDSC screen)
OSU-03012 = compound: NCC(=O)Nc1ccc(-n2nc(C(F)(F)F)cc2-c2ccc3c(ccc4ccccc43)c2)cc1 [OSU-03012]; conditions: top dose 16 µM; top dose inferred
Protocol: (§1)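 Human cancer cell lines in 384-well plates, medium with 10% serum, drug for 72 h over a 256-fold dose range (nine 2-fold or five 4-fold steps up to the top dose). Adherent lines were fixed and stained with the nucleic acid dye Syto60, suspension lines read with resazurin; signal relative to control wells, capped at 0 and 100%. One two-parameter sigmoid per drug and line, fitted in a mixed model over all curves with the slope shared within a line.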

CUDC-101 = compound: C#Cc1cccc(Nc2ncnc3cc(OC)c(OCCCCCCC(=O)NO)cc23)c1 [CUDC-101]; conditions: top dose 5.12 µM; top dose inferred
Protocol: as §1

QS11 = compound: OC[C@H](Cc1ccccc1)Nc1nc(Oc2ccc3c(c2)CCC3)nc2c1ncn2Cc1ccc(-c2ccccc2)cc1 [QS11]; conditions: top dose 10.24 µM
Protocol: as §1

JNK-9L = compound: Fc1cc(-c2ccnc(Nc3ccc(-n4cnc(N5CCOCC5)n4)cc3)n2)cc(N2CCOCC2)c1 [JNK-9L]; conditions: top dose 5.12 µM; top dose inferred
Protocol: as §1

RDEA119 = compound: COc1cc(F)c(F)c(Nc2ccc(I)cc2F)c1NS(=O)(=O)C1(C[C@H](O)CO)CC1 [RDEA119]; conditions: top dose 5 µM, top dose inferred
Protocol: as §1

AC220 = compound: CC(C)(C)c1cc(NC(=O)Nc2ccc(-c3cn4c(n3)sc3cc(OCCN5CCOCC5)ccc34)cc2)no1 [AC220]; conditions: top dose 1.024 µM; top dose inferred
Protocol: as §1

Cell Line	AUC (OSU-03012)	IC50 (OSU-03012) [nM]	AUC (CUDC-101)	IC50 (CUDC-101) [nM]	AUC (QS11)	IC50 (QS11) [nM]	AUC (JNK-9L)	IC50 (JNK-9L) [nM]	AUC (RDEA119; screen: GDSC drug entry 1014)	IC50 (RDEA119; screen: GDSC drug entry 1014) [nM]	AUC (RDEA119; screen: GDSC drug entry 1526)	IC50 (RDEA119; screen: GDSC drug entry 1526) [nM]	AUC (AC220)	IC50 (AC220) [nM]
MDA-MB-436 (breast, adherent)	0.875	> 16000	0.775	2570	0.98	> 10200	0.663	1030	0.805	3350	0.896	> 5000	0.983	> 1020
Capan-2 (pancreas, adherent)	0.777	7890	0.941	> 5120	0.985	> 10200	0.677	1110	0.8	3030	0.653	915	0.93	> 1020
LU-99A (large cell lung carcinoma, adherent)	0.805	7970	0.769	1910	0.954	> 10200	0.662	899	–	–	0.785	2120	0.986	> 1020
SK-OV-3 (ovary, adherent)	0.628	2480	0.542	429	0.881	> 10200	0.753	2100	0.933	> 5000	0.909	> 5000	0.973	> 1020
LS-411N (large intestine, adherent)	0.735	5520	0.424	189	0.814	7180	0.418	181	0.513	343	0.507	329	0.97	> 1020
HCC1806 (breast, adherent)	0.735	4360	0.544	418	0.915	> 10200	0.508	337	0.93	> 5000	0.951	> 5000	0.989	> 1020
OVCAR-5 (ovary, adherent)	0.832	13300	0.561	484	0.982	> 10200	0.446	221	0.48	273	0.487	286	0.978	> 1020
LK-2 (lung squamous cell carcinoma, adherent)	0.81	7830	0.534	394	0.965	> 10200	0.624	686	0.971	> 5000	0.949	> 5000	0.966	> 1020
HCC1937 (breast, adherent)	0.721	4720	0.626	753	0.985	> 10200	0.686	1150	0.908	> 5000	0.926	> 5000	0.969	> 1020
HCC1187 (breast, suspension)	0.955	> 16000	0.723	1320	0.966	> 10200	0.629	712	0.944	> 5000	–	–	0.98	> 1020
NCI-H1915 (large cell lung carcinoma, adherent)	0.866	14700	0.509	338	0.971	> 10200	0.597	595	–	–	0.633	732	0.986	> 1020
BT-474 (breast, adherent)	0.703	4010	0.744	1760	0.969	> 10200	0.675	1050	0.928	> 5000	0.979	> 5000	0.974	> 1020
PC-3 (prostate, adherent)	0.735	5520	0.502	324	0.934	> 10200	0.81	3460	0.945	> 5000	0.977	> 5000	0.98	> 1020
MDA-MB-468 (breast, adherent)	0.845	10900	0.715	1270	0.977	> 10200	0.643	783	0.885	> 5000	0.935	> 5000	0.979	> 1020
NCI-H520 (lung squamous cell carcinoma, adherent)	0.669	3020	0.481	283	0.916	> 10200	0.534	398	0.952	> 5000	0.984	> 5000	0.93	> 1020
TK10 (kidney, adherent)	0.687	3750	0.973	> 5120	0.934	> 10200	0.678	1120	0.756	2050	0.718	1500	0.982	> 1020
NCI-H187 (small cell lung carcinoma, suspension)	0.969	> 16000	0.519	361	0.984	> 10200	0.822	3330	0.986	> 5000	0.985	> 5000	0.98	> 1020
MKN45 (stomach, adherent)	0.604	2090	0.879	> 5120	0.784	5610	0.58	560	–	–	0.818	3830	0.981	> 1020
SN12C (kidney, adherent)	0.854	15200	0.711	1370	0.912	> 10200	0.663	967	–	–	0.809	3010	0.986	> 1020
A427 (non-small cell lung carcinoma, adherent)	0.556	1430	0.807	2660	0.931	> 10200	0.584	543	0.843	3600	0.875	5000	0.982	> 1020

Cell Line	AUC (OSU-03012)	IC50 (OSU-03012) [nM]	AUC (CUDC-101)	IC50 (CUDC-101) [nM]	AUC (QS11)	IC50 (QS11) [nM]	AUC (JNK-9L)	IC50 (JNK-9L) [nM]	AUC (RDEA119; screen: GDSC drug entry 1014)	IC50 (RDEA119; screen: GDSC drug entry 1014) [nM]	AUC (RDEA119; screen: GDSC drug entry 1526)	IC50 (RDEA119; screen: GDSC drug entry 1526) [nM]	AUC (AC220)	IC50 (AC220) [nM]
CAPAN-1 (pancreas, adherent)	0.837	12400	0.81	3060	0.906	> 10200	0.537	409	0.837	3870	–	–	0.986	> 1020
SF268 (glioma, adherent)	0.694	3670	0.382	147	0.884	> 10200	0.591	582	0.892	> 5000	0.898	> 5000	0.983	> 1020
SK-MEL-2 (melanoma, adherent)	0.855	13500	0.739	1590	0.987	> 10200	0.651	851	0.489	291	0.529	376	0.975	> 1020
COR-L23 (large cell lung carcinoma, adherent)	0.517	1110	0.518	358	0.822	5800	0.64	770	0.815	2660	0.851	3660	0.987	> 1020
A431 (skin, adherent)	0.609	1970	0.388	160	0.754	–	0.464	256	0.782	2000	0.933	> 5000	0.98	> 1020
IHH-4 (thyroid, semi-adherent)	0.44	709	0.586	524	0.74	2610	0.335	124	0.489	294	0.598	549	0.993	> 1020
U251 (glioma, adherent)	0.871	13800	0.303	92.5	0.969	> 10200	0.658	861	–	–	0.816	2610	0.986	> 1020
NCI-H3122 (lung adenocarcinoma, adherent)	0.575	1620	0.624	710	0.843	7580	0.412	182	0.733	1470	–	–	0.984	> 1020
OVCAR-8 (ovary, adherent)	0.701	3440	0.406	182	0.923	> 10200	0.531	386	0.865	3670	0.886	4530	0.98	> 1020
ChaGo-K-1 (non-small cell lung carcinoma, adherent)	0.782	7840	0.809	3210	0.931	> 10200	0.711	1410	0.954	> 5000	0.981	> 5000	0.976	> 1020
UMC-11 (lung carcinoid, adherent)	0.822	8070	0.37	147	0.989	> 10200	0.533	391	–	–	0.99	> 5000	0.953	> 1020
HSC-3 (head and neck, adherent)	0.452	757	0.685	963	0.735	2660	0.616	632	–	–	0.577	492	0.99	> 1020
SW1573 (lung adenocarcinoma, adherent)	0.771	8300	0.735	1920	0.975	> 10200	0.573	542	0.911	> 5000	0.861	> 5000	0.98	> 1020
T47D (breast, adherent)	0.763	8970	0.406	154	0.971	> 10200	0.858	> 5120	0.95	> 5000	0.96	> 5000	0.938	> 1020
OVCAR-4 (ovary, adherent)	0.691	4520	0.733	2090	0.838	> 10200	0.562	512	0.833	> 5000	0.81	4430	0.958	> 1020
NCI-H1651 (lung adenocarcinoma, adherent)	0.711	4150	0.829	3520	0.939	> 10200	0.654	885	0.959	> 5000	0.963	> 5000	0.986	> 1020
MKN28 (stomach, adherent)	0.394	508	0.748	1680	0.68	2060	0.537	405	0.802	2530	–	–	0.987	> 1020
NCI-H1048 (small cell lung carcinoma, adherent)	0.747	4680	0.582	524	0.942	> 10200	0.627	691	0.877	4160	0.98	> 5000	0.985	> 1020
HCC1428 (breast, adherent)	0.868	> 16000	0.527	381	0.985	> 10200	0.695	1200	0.987	> 5000	0.986	> 5000	0.946	> 1020
